In the RNAGym collection of RNA variant scans (doi:10.7554/elife.90254) one finds self-cleavage data, which are given here for 167 variants.

B1: LINE1-mini (parent)
chain: GGCAGAGCUCAACACAGCGUGGCAAAGUGGCUGUGGCUAGACUGCC

The source gives no read counts; variants with many changes may rest on few reads.

Variants of B1 are the subject of the data set. Put plainly: self-cleavage, relative activity (ratio to wild type); higher = more cleavage; in vitro, sequencing; the parent is a self-cleaving ribozyme.
Take C3U G5A A6C G7A A24U G40U: the self-cleavage was determined as 0.05.
In the case of C3U G5U G7A it was 0.2; in that of C3U G30U C45G, 1.15; in that of C3U C13G U28A G30U, 0.07.
For C3U G35C C45G, the self-cleavage came out at 0.05.
For the variant C3U G7U C8G G21C U38G, the self-cleavage came to 0.1.
In the case of C3U U20G G27C it was 0.07; in that of C3U U20G G27U, 0.19.
To C3U G17A C18G G19U A26U U34A belongs 0.04; to C3U G5A U32A, 0.06.
Consider C3U G5U C37U, for which the self-cleavage amounted to 0.22.
In the case of C3U C15G U20C G36C it was 0.09; in that of C3U C18G G33A C37U, 0.13.
To C3U G33C U43C G44A belongs 0.04; to C3U C31A A39U C46A, 0.01.
Take C3U G27U G40C: the self-cleavage amounted to 0.07.
For the variant C3U G5A U28A, the self-cleavage is 0.03.
In the case of C3U G5C G7U C15G G22U G36A it was 0.82; in that of C3U C31U U34A, 0.04.
In the case of C3U G5A G27U G36A it was 0.39; in that of C3U G7A U9A C37U G44A, 0.04.
With C3U G21A A25G, the self-cleavage was 0.99.
In the case of C3U U9G A12G G21U it was 0.07; in that of C3U G5U G22U G40A, 0.07.
With C3U G30U G36C A39U, the self-cleavage came out at 0.41.
In the case of C3U G5U C8U C31G G36C, the self-cleavage amounted to 0.23.
As to C3U U9A G17A A25C U32G A39G U43G, the self-cleavage amounted to 0.05.
In the case of A4C A11C A25G G30C G36U it was 0.01; in that of C3U U28C U34A A39U, 0.03.
In the case of C3U G29U G35U it was 0.18; in that of C3U G5A A24U U32C U34G A39U, 0.03.
Regarding C3U C15U C45G, the self-cleavage was found to be 0.09.
C3U C15G C31U U38C: the self-cleavage amounted to 0.03.
Regarding C3U G22C U32C, the self-cleavage was found to be 0.02.
To C3U G7U U43C G44A belongs 0.03; to C3U G5U A11C, 0.06; to C3U C13G A39U, 0.05.
Turning to C3U G33C G40A, the self-cleavage was 0.11.
In the case of C3U C18A C31A C46G it was 0.02; in that of A4C A6U G7A A16U G21U G29U, 0.23.
For C3U G17U G40U G44U, the self-cleavage is 0.02.
As for C3U G5A C42U, the self-cleavage stood at 0.11.
As to C3U G17C G36A G44A, the self-cleavage amounted to 0.05.
In the case of C3U G27C U34G G36A it was 0.02; in that of C3U C18G G36C C46G, 0.04; in that of C3U G21A G29U, 1.14.
Take C3U U28G G33A: the self-cleavage is 0.03.
Turning to C3U G29A G33C, the self-cleavage came to 0.03.
As to A4C A11C A26U, the self-cleavage was determined as 0.03.
For the variant C3U G5A C8A U20C G33A U38C, the self-cleavage came to 0.17.
As for C3U C15U A16U U32G, the self-cleavage was 0.09.
To C3U U9C C15G G21C G35C belongs 0.02.
Take C3U G22U A24U: the self-cleavage amounted to 0.58.
Consider C3U G7C C18G G19A A24C G27U, for which the self-cleavage is 0.03.
In the case of C3U G17A C18U G29U G35A it was 0.03.
C3U G17U C23A A24G A26G: the self-cleavage was 0.02.
To C3U G17A U34A belongs 0.04; to C3U U32A C37U, 0.06; to C3U G7C G17A U20C, 0.01.
On to C3U G5A G7C A12C, for which the self-cleavage was 0.05.
To C3U G5U G21A belongs 0.31; to C3U G7C G19A G30C, 0.18.
To C3U U9G G27C belongs 0.02.
For C3U G21U U28C, the self-cleavage was 0.04.
To A4C A6U C10A A14U C23A belongs 0.01; to C3U C15G G22A G27C U38G, 0.02.
For the variant C3U U9C A39U U43G, the self-cleavage was determined as 0.
To C3U G5U G17C G35U belongs 0.02; to C3U G7A U32A C37U, 0.14.
In the case of A4C A6G A24U G33A, the self-cleavage stood at 0.31.
Turning to C3U C13U G40C, the self-cleavage turned out to be 0.28.
In the case of C3U G29C C31G G44C it was 0.04.
Consider C3U G19C U32C, for which the self-cleavage stood at 0.09.
For C3U C23G A25U G27A U43G C45G, the self-cleavage is 0.03.
As to C3U U43C C45U, the self-cleavage stood at 0.1.
To C3U G5U G7U C23G belongs 0.19; to C3U C15A C31A A41U C42A, 0.17.
In the case of C3U C23G C31A it was 0.17; in that of C3U C15A G27U U28A G29U, 0.19; in that of A4C A6G C8A A41C C46A, 0.16.
To C3U G5A C15G A25G belongs 0.08; to C3U G17U G33U, 0.06.
For the variant C3U G22A A24U G36U C37A C42U, the self-cleavage was 0.02.
In the case of C3U G7U U9A C10U G21A G36A it was 0.25; in that of C3U G7A U32C C46G, 0.14; in that of C3U C13U C15A A41G C46U, 0.02.
For C3U G5C A26C G30C C31G G33U U43A, the self-cleavage turned out to be 0.02.
On to C3U G35C G44A, for which the self-cleavage came out at 0.06.
On to C3U G40C G44A C45A, for which the self-cleavage was 0.02.
To C3U G17U U28G U32C G44A belongs 0.75; to C3U G36A G44A, 0.04; to C3U G35C U43C, 0.08.
Regarding C3U G27C G29C, the self-cleavage worked out at 0.06.
Turning to C3U U9G C23G, the self-cleavage was found to be 0.13.
In the case of C3U C31G C37U it was 0.27; in that of C3U U28A C31U C46A, 0.03; in that of C3U G19U A26U A39C, 0.19.
Turning to C3U U9A A25U, the self-cleavage is 0.12.
In the case of C3U G7U G29U U32C it was 0.12.
Take C3U G5C A11G C23A C46U: the self-cleavage came out at 0.03.
Consider C3U C42U C46U, for which the self-cleavage was determined as 0.09.
In the case of C3U G27C C31U it was 0.02; in that of C3U U9A A12G C18G U20A G29U, 0.02; in that of C3U U20A U28G C45A, 0.04.
To C3U G5U C10A G27U G33A belongs 0.03; to C3U G22C C31U G35A C42U, 0.01; to C3U C15A G35U C42U, 0.11.
With C3U C15A U38A A39G, the self-cleavage was determined as 0.04.
To C3U C18A A26U C45U belongs 0.17; to C3U G5U G29U U38A, 0.51; to C3U G36U C46U, 0.13.
With C3U G19A A25C U32A U38A, the self-cleavage was found to be 0.04.
To C3U C15G A25U G44A belongs 0.01; to C3U C18G U38G, 0.01.
In the case of C3U U28C C31G it was 0.02.
Take C3U U9G A11C: the self-cleavage was determined as 0.04.
To C3U G7C C8A U32A G40U belongs 0.31; to C3U G5C C13A A26G, 0.06.
Consider C3U G17A G29A, for which the self-cleavage is 0.21.
To C3U C31U C42A belongs 0; to C3U G7C C23A G27U G35C G44A, 0.02.
To C3U C15G A24G C31G belongs 0.06; to C3U G36A A41G, 0.13; to C3U G5C C8G A14C G40U, 0.07.
Consider C3U G17U U43G, for which the self-cleavage came out at 0.02.
For the variant C3U G5U G30A C45A, the self-cleavage amounted to 0.02.
In the case of C3U G7U C8U U32C it was 2.32.
In the case of C3U G5C C15A U28A A41C C45G, the self-cleavage was 0.07.
As to C3U U9C C10U G36C, the self-cleavage is 0.05.
C3U U9G C37G: the self-cleavage amounted to 0.05.
In the case of C3U G29U G40A, the self-cleavage was 0.11.
In the case of C3U G29U G40U it was 0.04.
In the case of C3U G5U G19U G29A G30A it was 0.13; in that of C3U C23A U28G G33U U38C, 0.02; in that of C3U G5A C8G A25C G27C, 0.01.
In the case of C3U G27U A41C, the self-cleavage is 0.05.
To C3U G44U C45A belongs 0.03; to C3U C18A U32G, 0.02.
On to C3U U9A A16C G27C U32G G33A, for which the self-cleavage was found to be 0.13.
To C3U C13G A25C belongs 0.03; to C3U C18A A26G, 0.07.
To A4C A6C U20G G21U G22A A25G A41G belongs 0.13.
In the case of C3U C15A C23A G27A G40U G44C it was 0.02; in that of A4C A6G C10A C23U A26U U38A, 0.02; in that of C3U G17U G21A G22A G36U U43C, 0.02.
Regarding C3U C13G C31G, the self-cleavage was 0.1.
In the case of A4C A6C A14U C18A A26G U28A C37A C45U it was 0.03; in that of C3U C18G U32A G36A, 0.03.
In the case of C3U C18G C42A it was 0.1; in that of C3U C18G C42U, 0.04.
To A4C A6G G44C belongs 0.08; to C3U G21U G33C A39G, 0.02.
C3U G21C A39C: the self-cleavage was 0.06.
In the case of C3U C23A A26C, the self-cleavage amounted to 1.11.
As to C3U G17C C31U G36U, the self-cleavage was determined as 0.07.
In the case of C3U G5U A26U, the self-cleavage stood at 0.07.
In the case of A4C A6U C10A G17A U32C it was 0.01; in that of C3U C23U G27C, 0.16.
To C3U G5U U9C G33A G35A A39C belongs 0.01.
Consider C3U G29A C31A A39U G40U, for which the self-cleavage is 0.04.
As to C3U G27U U32A C42A U43A, the self-cleavage worked out at 0.05.
To C3U G5A G36A belongs 1.5; to C3U G29A G44A, 0.32; to C3U G17A G35A, 0.02.
In the case of C3U C15A G22C A39U it was 0.08; in that of C3U G35U G36U, 0.76.
With C3U U20A G29C G44U, the self-cleavage amounted to 0.1.
